Over roughly 110,000 compounds, “z-score” has its median near -0.1; the highest 2% begin near 2. The list shows a part of the results. Activity calls are given as the source filed them.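 Rule for the calls: active = z-score in the third read window above 3 or below -3; inactive = the rest.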
biological target: Metabotropic glutamate receptor 8 (Rattus norvegicus) (UniProt P70579); experiment: mGluR8 Gi/Go-coupled signaling modulation – cell-based, rat, thallium flux, HTS, primary screen (AID 488969); conditions: HEK293 rat mGluR8, GIRK (G protein-gated inwardly rectifying potassium channel) thallium flux, FluoZin2; at 10 µM; stronger effect = higher value; submaximal glutamate (EC20) added with thallium
Sequence of UniProt P70579 (P70579 whole entry, looked up): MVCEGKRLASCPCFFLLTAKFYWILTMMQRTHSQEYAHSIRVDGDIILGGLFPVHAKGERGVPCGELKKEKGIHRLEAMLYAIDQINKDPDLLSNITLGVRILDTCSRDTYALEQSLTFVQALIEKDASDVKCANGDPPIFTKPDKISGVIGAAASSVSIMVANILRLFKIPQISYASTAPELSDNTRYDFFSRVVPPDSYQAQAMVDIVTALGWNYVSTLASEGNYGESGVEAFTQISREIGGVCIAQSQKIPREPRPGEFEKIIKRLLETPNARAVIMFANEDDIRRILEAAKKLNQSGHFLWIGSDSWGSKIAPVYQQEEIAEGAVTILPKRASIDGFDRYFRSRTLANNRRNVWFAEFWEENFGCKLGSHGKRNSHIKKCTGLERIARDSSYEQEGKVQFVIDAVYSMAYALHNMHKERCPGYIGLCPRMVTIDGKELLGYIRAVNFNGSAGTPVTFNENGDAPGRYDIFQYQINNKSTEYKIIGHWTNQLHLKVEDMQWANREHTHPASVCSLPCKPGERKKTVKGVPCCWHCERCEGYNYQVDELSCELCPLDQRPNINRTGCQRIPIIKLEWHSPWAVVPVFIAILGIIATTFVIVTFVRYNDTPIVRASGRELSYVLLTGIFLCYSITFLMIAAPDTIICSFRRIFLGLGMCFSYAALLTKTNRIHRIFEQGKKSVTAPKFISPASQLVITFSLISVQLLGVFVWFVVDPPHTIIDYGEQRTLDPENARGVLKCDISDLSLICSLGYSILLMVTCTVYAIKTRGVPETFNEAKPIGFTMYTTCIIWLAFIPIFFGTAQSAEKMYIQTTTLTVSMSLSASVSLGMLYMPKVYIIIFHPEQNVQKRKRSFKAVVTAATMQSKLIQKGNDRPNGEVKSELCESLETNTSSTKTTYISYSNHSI

| Structure (SMILES) | z-score |
| --- | --- |
| O=C(C1CCCN(S(=O)(=O)c2cccc3cccnc23)C1)N1CCc2ccccc21 (stereo not given) | -1.2 |
| O=S(=O)(c1cccc(NC(=S)N2CCN(c3ccccc3)CC2)c1)C(F)F | -0.245 |
| CCOc1ccc2[nH]c(=O)c(CN(CCc3ccccc3)C(=O)N3CCCC3)cc2c1 | -0.15 |
| CN(C)c1ccc(/C=N\S(=O)(=O)c2ccccc2)cc1 | -0.0575 |
| COc1ccc(/C=C/C(=O)NCc2cn(C)nc2C)cc1COc1ccc(Br)cc1 | -0.112 |
| COCCn1c(SCC(=O)Nc2cc(C)on2)nnc1-c1ccco1 | -0.0564 |
| O=C1c2ccccc2C(Nc2ccc3c(c2)OCCO3)N1c1ccccn1 (stereo not given) | 0.814 |
| CC(=O)C(C(C)=O)C(NC(=O)c1cccnc1)(C(F)(F)F)C(F)(F)F | 0.0268 |
| N#Cc1nc(-c2ccccc2F)oc1NCCN1CCOCC1 | -0.214 |
| CCc1ccc(NC2=CC(=O)CC(c3ccco3)C2)cc1 (stereo not given) | -0.311 |
| Cc1ccc2nsnc2c1S(=O)(=O)N1CCOCC1 | -0.305 |
| COc1cccc(OC)c1C(=O)Nc1ccccc1N1CCCC1 | -0.48 |
| Cc1cc(C)cc(NC(=O)Cn2cc3c(n2)CCCCC3)c1 | active: 5.95 |
| NC(=O)c1sc2nc3c(c(-c4cccs4)c2c1N)CCCCC3 | 0.122 |
| COc1cc(NC(=O)COc2ccc(-n3cnnn3)cc2)c(OC)cc1Cl | -0.133 |
| Cc1cc(C)c2oc(C(=O)Nc3nnc(C(C)C)s3)cc(=O)c2c1 | -0.0364 |
| COc1cccc(C(=O)N(Cc2ccc(N(C)C)cc2)C2CCS(=O)(=O)C2)c1 (stereo not given) | -0.438 |
| CCOC(=O)c1ccc(NC(=O)CC2SC(=NC)N(C)C2=O)cc1 (stereo not given) | 0.254 |
| c1coc(-c2ncc[nH]2)c1 | 0.0775 |
| COc1ccc([N+](=O)[O-])cc1NC1C2CC3CC(C2)CC1C3 (stereo not given) | -0.573 |
| Cc1cccc(/C(N)=N/OC(=O)c2ccc3c(c2)OCO3)c1 | 0.579 |
| O=C(c1cccc(C(F)(F)F)c1)N1CCOC12CCN(c1ncc(C(F)(F)F)cc1Cl)CC2 | -0.0788 |

| Structure (SMILES) | z-score |
| --- | --- |
| COc1ccc(CN(CCC(c2ccccc2)c2ccc(OC(C)C)cc2)C(=O)CCl)cc1OC (stereo not given) | -0.0471 |
| CCN1/C(=C2\C(=O)N(C)C(=S)N2C)C=Cc2cc(C)ccc21 | -0.149 |
| CCOC(=O)c1nnn(-c2nc(OC)nc(N(C)C)n2)c1-c1ccccc1 | -1.4 |
| CCN1CCN(S(=O)(=O)Cc2ccccc2)CC1 | -0.322 |
| C/C(=N\NC(=S)Nc1cc(S(=O)(=O)N2CCOCC2)ccc1Cl)c1ccccc1F | 0.42 |
| c1cc2c3c(cccc3c1)NC1(CCCCC1)N2 | -0.436 |
| Cc1oc2nc(SCC(=O)Nc3ccc(S(N)(=O)=O)cc3)nc(NC(=O)c3ccccc3)c2c1C | -0.289 |
| CCC(=O)N1CCN(C(C)=O)C1c1ccccc1 (stereo not given) | 0.0454 |
| Cc1c(Br)c([N+](=O)[O-])nn1C(C)C(=O)NCc1ccco1 (stereo not given) | -0.00744 |
| CCCn1nnc(NC(=O)Cc2ccc(Cl)cc2)n1 | 0.688 |
| Cc1nc(N2CCN(C(=O)c3ccc(Cl)cc3)CC2)c(C#N)c2c1COC(C)(C)C2 | -2.62 |
| COc1ccc(C(=O)c2c[nH]c(C(=O)NCc3cccs3)c2)cc1 | 0.205 |
| COn1c(-c2ccccc2)nc2c1CCc1nonc1-2 | 0.628 |
| CC(=O)NCCn1c(SCC(=O)c2ccc(Cl)cc2)nc2ccccc2c1=O | 0.128 |
| O=C(NCc1ccccn1)NC12CC3CC(CC(C3)C1)C2 | 0.8 |
| CSc1nnc(C)c(=O)n1COC(=O)COc1ccc2ccccc2c1 | -0.401 |
| CN(C)C(=O)c1cn(N(C)c2ncc(C(F)(F)F)cc2Cl)c(=O)c2ccccc12 | -0.192 |
| CCC(CC)C(=O)Nc1cccc(C(=O)N2CCCCCC2)c1 | 0.159 |
| COc1ccc(CNC(=O)COC(=O)c2n[nH]c3ccccc23)cc1OC | -0.278 |
| CC1CCN(C(=O)/C(=C/c2ccccc2Cl)c2ccccc2)CC1 | -0.741 |
| O=S(=O)(N/N=C\c1cn(-c2ccccc2)nc1-c1ccccc1)c1ccccc1 | -0.177 |
| CC(=O)Nc1ccc(OCC(O)Cn2c(C)nc3ccccc32)cc1 (stereo not given) | -0.0389 |

| Structure (SMILES) | z-score |
| --- | --- |
| Cc1cc(C)c(NC2=CC(=O)CC(C)(C)C2)c(C#N)c1 | 1.29 |
| Cc1ccc(S(=O)(=O)Nc2nc3ccccc3nc2N2CCc3ccccc3C2)cc1 | 0.507 |
| Cc1cc(SCC(=O)Nc2ccccc2C)nc(C)n1 | 0.67 |
| O=C(c1ccc2[nH]c3c(c2c1)CCCC3)N1CCN(c2ccc(F)cc2)CC1 | -0.218 |
| CCCc1cc(C(=O)Nc2cc(C)on2)no1 | -0.171 |
| Nc1nc(-c2ccc(Cl)cc2Cl)cn1N | -0.0192 |
| Cc1ccccc1C(=O)NNC1=NCCC1 | 0.322 |
| C=CCc1cccc(/C=N/NC(=O)C(C)Nc2ccc(C)cc2)c1O (stereo not given) | 0.332 |
| O=C(c1ccc(COc2ccccc2Br)cc1)N1CCCCC1 | -0.225 |
| CCC(C)(C)n1nnnc1C(c1cccs1)N1CCN(Cc2ccccc2)CC1 (stereo not given) | 0.0615 |
| O=C(NCc1ccccn1)c1ccc(Cl)c(S(=O)(=O)Nc2ccccc2C(=O)NCc2ccccn2)c1 | -0.128 |
| O=C(NCC1(c2ccccc2)CCCC1)c1ccc(Br)o1 | -0.309 |
| COc1cccc(/C=N/Nc2nc3ccccc3n3cnnc23)c1O | -0.172 |
| Cc1ccc(N=Cc2cc3c(cc2O)OC(N)=C(C#N)C3c2ccccc2)cc1 (stereo not given) | active: 6.28 |
| CCC(=O)Nc1ccc(-c2nn3c(C)nnc3s2)cc1C | 0.0498 |
| COc1ccc(NC(=O)C(C)N2c3cccc4cccc(c34)S2(=O)=O)cc1OC (stereo not given) | -0.0966 |
| CN1CCN(C(=O)c2cnn3c(C(F)F)cc(C4CC4)nc23)CC1 | -0.139 |
| Cc1ccc(OCC(=O)Nc2ccc(N3CCCC3)cc2)cc1C | 0.163 |
| Cc1cnc(C(=O)OCC(=O)c2csc(N3CCCCC3)n2)cn1 | 1.52 |
| Cc1cccc(NS(=O)(=O)c2ccc3c(c2)Cc2cc(S(=O)(=O)Nc4cccc(C)c4C)ccc2-3)c1C | -0.185 |
| COc1ccc(-c2nc3ccccc3o2)cc1NC(=O)CSc1ccc(Cl)cc1 | -0.0379 |
| CC(=O)CSc1nnc(Cc2ccc([N+](=O)[O-])cc2)o1 | -0.494 |

| Structure (SMILES) | z-score |
| --- | --- |
| Cc1cc2cc3c(cc2nc1SCC(=O)Nc1ccccc1)CCC3 | -0.0628 |
| Clc1cccc(CNc2nnnn2-c2ccccc2)c1 | 0.0987 |
| COCCCNCCOCCSc1ccc(Cl)cc1 | 0.918 |
| N#CC1=C(N)Oc2n[nH]c(-c3cccs3)c2C1c1ccco1 (stereo not given) | active: -3.57 |
| CCCC(=O)NC(c1cccs1)c1cc([N+](=O)[O-])c2cccnc2c1O (stereo not given) | 2.37 |
| COc1ccc(/C=N/NC(=O)c2nc(-c3ccccc3)cc(-c3ccccc3)n2)cc1OC | 0.42 |
| COc1ccc(S(=O)(=O)N(C)CC(=O)N2CCOCC2)cc1Cl | -1.29 |
| CN(Cc1ccccc1)c1nc(-c2cccc([N+](=O)[O-])c2)nc2ccccc12 | -0.185 |
| COc1ccc(Sc2cc(C(F)(F)F)nc(-c3ccccn3)n2)cc1 | -0.417 |
| CN1CCN(C(=O)c2cc3c(C(F)(F)F)nn(C)c3s2)CC1 | 0.145 |
| O=C(NC1CCCCC1)N1CCC(c2nc3ccccc3[nH]2)CC1 | 0.0638 |
| CCCSc1nc2c(c(=O)n(C)c(=O)n2C)n1Cc1ccc(C)cc1 | -0.518 |
| CCc1ccc(N2C(=O)Cc3c2nc(N)c(C#N)c3N)cc1 | -0.00155 |
| COc1cc(-c2nnc(CSc3nnc4nc(C)cc(C)n34)o2)cc(OC)c1OC | -0.228 |
| Cc1ccc(-n2c(-c3nn(C)c(C)c3Cl)n[nH]c2=S)cc1 | -0.213 |
| CC(=O)Nc1ccc(NS(=O)(=O)c2ccc(Cl)c(C(=O)O)c2)cc1 | 1.08 |
| CN1CCC(=NNC(=O)C(=O)Nc2ccccc2)CC1 | -0.494 |
| C=CCn1c(SCC(=O)N2CCc3ccccc3C2)nc2sc(C)c(C)c2c1=O | -0.981 |
| O=C(CSc1nc(-c2ccc(F)cc2)cc(C(F)(F)F)n1)NCCN1CCOCC1 | 0.00416 |
| CC(C)OC(=O)C1C(=O)CC(C)(O)C(C(=O)OC(C)C)C1c1cccc(O)c1 (stereo not given) | 0.0244 |
| CCS(=O)(=O)N1CCCC(C(=O)NCCCOC(C)C)C1 (stereo not given) | -0.406 |
| COc1ccc(NC(=O)OCC(C)C)cc1OC | 0.00658 |

| Structure (SMILES) | z-score |
| --- | --- |
| O=C(c1ccc(-n2cnnn2)cc1)N1CCN(C(c2ccccc2)c2ccccc2)CC1 | -0.399 |
| CCOC(=O)c1c(NC(=O)C(Sc2ccccc2)c2ccccc2)sc(C(N)=O)c1C (stereo not given) | -0.216 |
| CCOC(=O)N1CCC(NC(=O)CSCc2cnn(-c3ccccc3)c2-n2cccc2)CC1 | -0.7 |
| O=C(Cn1nc(C(F)(F)F)c2c1CCC2)Nc1ccccc1C(F)(F)F | -0.132 |
| CCSc1nc2ccccc2c(=O)n1OCC(=O)OC | -0.148 |
| COC(=O)c1ccccc1NC(=O)c1ccc2c(c1)OCCO2 | -0.887 |
| O=C(COC(=O)C12CC3CC(CC(C3)C1)C2)Nc1nc2c(F)c(F)c(F)cc2s1 | -0.635 |
| CCc1noc(C)c1C(=O)N1CCOCC1 | 0.252 |
| NN1C(=O)c2cccc3c(C(=O)O)ccc(c23)C1=O | 0.219 |
| Cn1nnnc1SCc1ccc(C(=O)Nc2ccc(Br)cc2)cc1 | -0.0576 |
| Cc1ccc(C(=O)C2=C(O)C(=O)N(CCCn3ccnc3)C2c2ccc(OC(C)C)cc2)o1 (stereo not given) | 0.882 |
| CCC(=O)Nc1nc(-c2ccccc2)ns1 | 0.249 |
| CCOC(=O)c1[nH]c(C)c(/C(O)=C2\C(=O)C(=O)N(CCCn3ccnc3)C2c2ccncc2)c1C (stereo not given) | -0.672 |
| CCOC(=O)c1cnc(SCC(=O)Nc2ccc(N3CCOCC3)cc2)nc1N | -0.1 |
| COc1ccccc1N1C(=O)c2ccccc2NC1C(OC)OC (stereo not given) | 0.107 |
| CCCNC(=O)c1cn(CC)c2cc(N3CCN(C)CC3)c(F)cc2c1=O | -0.0575 |
| Cc1ccccc1NC(=S)NC(NC(=O)c1ccco1)C(Cl)(Cl)Cl (stereo not given) | -0.217 |
| COc1ccc(S(=O)(=O)Nc2cccc(C)n2)c2ccccc12 | -0.106 |
| CC1(C(=O)CSc2n[nH]c(-c3ccccc3Cl)n2)CCC(=O)O1 (stereo not given) | -0.451 |
| COC(=O)c1c(NC(=O)c2ccccc2)sc2c1CC(C)(C)OC2 | 0.169 |
| Cn1nc(-c2ccccc2)c(CSc2ccccc2)c1Cl | -0.181 |
| CC(C)C(=O)Nc1ccc2oc(-c3cc(F)c(F)cc3Cl)nc2c1 | -0.243 |
